Consider four molecules from paper PMC2253824.

Amino acid sequences for entries named in this document (tags omitted).
UniProt P09884: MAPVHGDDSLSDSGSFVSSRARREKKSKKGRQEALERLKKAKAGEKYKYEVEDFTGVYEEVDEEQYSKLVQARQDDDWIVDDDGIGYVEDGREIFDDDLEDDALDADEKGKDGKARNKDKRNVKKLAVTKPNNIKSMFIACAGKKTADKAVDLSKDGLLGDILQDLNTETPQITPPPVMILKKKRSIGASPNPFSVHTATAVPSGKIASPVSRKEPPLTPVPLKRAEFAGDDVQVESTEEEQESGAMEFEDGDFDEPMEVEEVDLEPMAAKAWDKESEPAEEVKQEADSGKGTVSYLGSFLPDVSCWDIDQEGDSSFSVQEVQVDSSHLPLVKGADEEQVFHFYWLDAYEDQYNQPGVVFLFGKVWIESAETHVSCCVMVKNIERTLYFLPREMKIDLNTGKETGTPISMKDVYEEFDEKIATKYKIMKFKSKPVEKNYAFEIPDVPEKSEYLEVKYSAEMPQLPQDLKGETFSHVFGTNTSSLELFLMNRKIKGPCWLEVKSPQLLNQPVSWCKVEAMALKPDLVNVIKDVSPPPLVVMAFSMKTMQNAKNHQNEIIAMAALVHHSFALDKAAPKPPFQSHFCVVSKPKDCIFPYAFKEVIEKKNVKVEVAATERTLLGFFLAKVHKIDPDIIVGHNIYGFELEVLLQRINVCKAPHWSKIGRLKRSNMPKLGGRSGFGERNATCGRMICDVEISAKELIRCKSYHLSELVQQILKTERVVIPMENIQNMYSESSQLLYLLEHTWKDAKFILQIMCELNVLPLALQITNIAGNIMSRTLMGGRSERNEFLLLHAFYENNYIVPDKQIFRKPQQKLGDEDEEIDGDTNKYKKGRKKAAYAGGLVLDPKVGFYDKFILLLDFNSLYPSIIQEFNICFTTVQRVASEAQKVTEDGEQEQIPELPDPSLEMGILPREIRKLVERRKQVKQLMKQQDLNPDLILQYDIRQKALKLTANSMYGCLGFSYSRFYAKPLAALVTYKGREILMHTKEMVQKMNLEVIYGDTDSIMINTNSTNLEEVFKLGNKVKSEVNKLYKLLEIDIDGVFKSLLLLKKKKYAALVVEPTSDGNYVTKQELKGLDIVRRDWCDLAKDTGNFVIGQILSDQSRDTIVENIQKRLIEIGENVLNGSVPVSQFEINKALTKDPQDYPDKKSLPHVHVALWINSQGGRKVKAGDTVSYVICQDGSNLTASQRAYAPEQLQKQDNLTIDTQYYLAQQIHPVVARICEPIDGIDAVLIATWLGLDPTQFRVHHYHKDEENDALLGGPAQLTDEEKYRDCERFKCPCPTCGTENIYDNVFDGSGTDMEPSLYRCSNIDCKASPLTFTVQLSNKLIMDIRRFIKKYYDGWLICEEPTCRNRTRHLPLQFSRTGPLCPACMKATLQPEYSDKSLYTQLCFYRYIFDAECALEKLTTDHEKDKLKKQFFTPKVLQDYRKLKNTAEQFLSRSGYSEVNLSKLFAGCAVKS
UniProt P08238: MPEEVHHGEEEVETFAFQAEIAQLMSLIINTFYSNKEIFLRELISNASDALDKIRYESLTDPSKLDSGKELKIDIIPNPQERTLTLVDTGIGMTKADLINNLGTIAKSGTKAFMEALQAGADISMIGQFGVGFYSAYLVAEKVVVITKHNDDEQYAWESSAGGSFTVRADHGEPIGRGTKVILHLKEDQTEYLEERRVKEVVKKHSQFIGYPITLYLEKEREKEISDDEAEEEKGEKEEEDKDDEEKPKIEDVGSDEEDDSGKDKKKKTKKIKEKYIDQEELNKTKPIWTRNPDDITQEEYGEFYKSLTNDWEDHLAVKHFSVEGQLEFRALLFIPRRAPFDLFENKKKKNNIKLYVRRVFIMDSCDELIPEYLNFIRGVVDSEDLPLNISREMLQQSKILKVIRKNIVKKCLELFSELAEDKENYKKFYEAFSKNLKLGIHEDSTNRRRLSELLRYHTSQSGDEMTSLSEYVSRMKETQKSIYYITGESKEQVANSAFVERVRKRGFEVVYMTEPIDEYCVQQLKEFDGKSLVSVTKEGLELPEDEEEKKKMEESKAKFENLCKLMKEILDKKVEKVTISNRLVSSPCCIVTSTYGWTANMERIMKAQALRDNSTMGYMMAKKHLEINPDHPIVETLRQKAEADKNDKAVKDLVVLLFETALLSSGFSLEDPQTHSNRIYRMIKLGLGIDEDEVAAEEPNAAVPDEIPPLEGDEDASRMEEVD
UniProt P11142: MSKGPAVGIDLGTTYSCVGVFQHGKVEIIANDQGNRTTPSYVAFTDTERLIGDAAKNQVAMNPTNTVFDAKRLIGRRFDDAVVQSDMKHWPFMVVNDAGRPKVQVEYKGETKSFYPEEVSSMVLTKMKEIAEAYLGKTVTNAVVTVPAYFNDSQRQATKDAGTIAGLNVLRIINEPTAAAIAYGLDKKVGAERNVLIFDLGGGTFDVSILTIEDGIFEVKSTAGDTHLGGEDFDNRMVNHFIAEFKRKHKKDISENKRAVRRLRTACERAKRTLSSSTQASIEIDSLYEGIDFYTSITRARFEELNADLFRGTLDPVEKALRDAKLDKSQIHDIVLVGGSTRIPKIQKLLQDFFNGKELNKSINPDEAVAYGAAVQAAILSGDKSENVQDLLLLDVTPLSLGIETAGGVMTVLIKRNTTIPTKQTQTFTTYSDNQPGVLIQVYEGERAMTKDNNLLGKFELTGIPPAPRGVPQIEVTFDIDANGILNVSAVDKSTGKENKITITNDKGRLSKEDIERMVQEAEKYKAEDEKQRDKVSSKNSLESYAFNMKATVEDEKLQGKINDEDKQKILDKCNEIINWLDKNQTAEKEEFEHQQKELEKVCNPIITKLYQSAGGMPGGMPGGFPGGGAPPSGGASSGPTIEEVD

The target in assay [1] is T1, TTC4, endogenous in Hela cells (human (endogenous in Hela)) (UniProt O95801).
T1 sequence: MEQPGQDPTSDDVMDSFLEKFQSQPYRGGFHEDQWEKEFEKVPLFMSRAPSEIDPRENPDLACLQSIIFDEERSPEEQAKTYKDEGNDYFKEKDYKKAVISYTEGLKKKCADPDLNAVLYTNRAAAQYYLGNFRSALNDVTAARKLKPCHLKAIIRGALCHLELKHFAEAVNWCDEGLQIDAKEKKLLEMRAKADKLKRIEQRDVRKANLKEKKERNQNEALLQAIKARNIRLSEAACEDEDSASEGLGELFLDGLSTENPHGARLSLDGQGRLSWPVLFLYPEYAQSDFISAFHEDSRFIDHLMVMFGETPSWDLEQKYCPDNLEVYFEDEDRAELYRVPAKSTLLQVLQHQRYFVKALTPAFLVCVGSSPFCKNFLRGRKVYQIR
Nature of the assay: co-IP; anti-TTC4 serum coupled to protein A sepharose, Hela cell extract (PBS, 1% triton X100); pellet blotted for HSP90, HSP70, CDC6; pre immune serum as control.

Assay [2] concerns the target human DNA polymerase alpha large subunit, two-hybrid fusion (human) (UniProt P09884). The experiment in a line: condition: <5 (percentage of the cdc6/TTC4 interaction); two-hybrid; quantitative liquid beta-galactosidase assays; values as a percentage of the cdc6/TTC4 interaction.
Assay [3] concerns the target human HSP90 protein 1 beta (HSPCB), two-hybrid fusion in pEG202 (human) (UniProt P08238). The experiment in a line: two-hybrid; pairs of bait (pEG202) and activation (pJG4.5) vectors co-transfected into S. cerevisiae; growth on selective and non-selective media after 1 or 2 days.
The target of assay [4] is human DNA polymerase alpha large subunit, two-hybrid fusion (human) (UniProt P09884). Described as above.
In assay [5] the target is T2, human CDC6, two-hybrid fusion in pEG202 (human) (UniProt Q99741).
T2 sequence: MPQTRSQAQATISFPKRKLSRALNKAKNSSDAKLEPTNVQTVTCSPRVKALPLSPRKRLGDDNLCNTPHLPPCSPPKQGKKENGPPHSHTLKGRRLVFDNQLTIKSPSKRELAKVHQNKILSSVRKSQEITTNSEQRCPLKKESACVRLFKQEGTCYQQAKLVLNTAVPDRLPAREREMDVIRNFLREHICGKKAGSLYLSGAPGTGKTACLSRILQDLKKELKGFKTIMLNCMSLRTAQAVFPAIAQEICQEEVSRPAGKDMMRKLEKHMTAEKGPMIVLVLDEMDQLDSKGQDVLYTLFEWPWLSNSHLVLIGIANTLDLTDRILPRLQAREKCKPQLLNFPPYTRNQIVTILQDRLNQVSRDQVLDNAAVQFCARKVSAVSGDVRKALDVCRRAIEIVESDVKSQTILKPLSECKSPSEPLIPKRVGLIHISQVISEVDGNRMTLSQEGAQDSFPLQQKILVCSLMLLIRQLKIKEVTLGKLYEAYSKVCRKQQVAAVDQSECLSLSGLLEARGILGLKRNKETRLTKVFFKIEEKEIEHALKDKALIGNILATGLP
The assay is described as above.

The target in assay [6] is human HSP70 protein 8 (HSPA8), two-hybrid fusion in pEG202 (human) (UniProt P11142). Described as above.
Assay [7] has as its target T2, human CDC6, two-hybrid fusion in pEG202 (human). Nature of the assay: condition: <5 (percentage of the cdc6/TTC4 interaction); two-hybrid; quantitative liquid beta-galactosidase assays; values as a percentage of the cdc6/TTC4 interaction.

These are yes or no findings as the source states them, for the method shown. For some assays here: Binding seen in cells or lysates may run through a third protein. Some binding calls cover weakened binding; strength is not graded here. For some assays here: Sequences can lack the tags named with a protein.

B1: CDC6, endogenous in Hela cells (protein, UniProt Q99741 1-560)
chain: MPQTRSQAQATISFPKRKLSRALNKAKNSSDAKLEPTNVQTVTCSPRVKALPLSPRKRLGDDNLCNTPHLPPCSPPKQGKKENGPPHSHTLKGRRLVFDNQLTIKSPSKRELAKVHQNKILSSVRKSQEITTNSEQRCPLKKESACVRLFKQEGTCYQQAKLVLNTAVPDRLPAREREMDVIRNFLREHICGKKAGSLYLSGAPGTGKTACLSRILQDLKKELKGFKTIMLNCMSLRTAQAVFPAIAQEICQEEVSRPAGKDMMRKLEKHMTAEKGPMIVLVLDEMDQLDSKGQDVLYTLFEWPWLSNSHLVLIGIANTLDLTDRILPRLQAREKCKPQLLNFPPYTRNQIVTILQDRLNQVSRDQVLDNAAVQFCARKVSAVSGDVRKALDVCRRAIEIVESDVKSQTILKPLSECKSPSEPLIPKRVGLIHISQVISEVDGNRMTLSQEGAQDSFPLQQKILVCSLMLLIRQLKIKEVTLGKLYEAYSKVCRKQQVAAVDQSECLSLSGLLEARGILGLKRNKETRLTKVFFKIEEKEIEHALKDKALIGNILATGLP
B1: in assay [1], the binding entry was “binds”.

B2: human TTC4, two-hybrid fusion in pJG4.5 (protein, UniProt O95801 1-387)
chain: MEQPGQDPTSDDVMDSFLEKFQSQPYRGGFHEDQWEKEFEKVPLFMSRAPSEIDPRENPDLACLQSIIFDEERSPEEQAKTYKDEGNDYFKEKDYKKAVISYTEGLKKKCADPDLNAVLYTNRAAAQYYLGNFRSALNDVTAARKLKPCHLKAIIRGALCHLELKHFAEAVNWCDEGLQIDAKEKKLLEMRAKADKLKRIEQRDVRKANLKEKKERNQNEALLQAIKARNIRLSEAACEDEDSASEGLGELFLDGLSTENPHGARLSLDGQGRLSWPVLFLYPEYAQSDFISAFHEDSRFIDHLMVMFGETPSWDLEQKYCPDNLEVYFEDEDRAELYRVPAKSTLLQVLQHQRYFVKALTPAFLVCVGSSPFCKNFLRGRKVYQIR
Take B2: the binding result in assay [2] is “no binding”; in assay [3], “binds”; in assay [4], “no binding”; in assay [5], “binds”; in assay [6], “binds”.

B3: TTC4-230AC (77EA), two-hybrid fusion in pJG4.5 (protein, UniProt O95801 1-387)
chain: MEQPGQDPTSDDVMDSFLEKFQSQPYRGGFHEDQWEKEFEKVPLFMSRAPSEIDPRENPDLACLQSIIFDEERSPEAQAKTYKDEGNDYFKEKDYKKAVISYTEGLKKKCADPDLNAVLYTNRAAAQYYLGNFRSALNDVTAARKLKPCHLKAIIRGALCHLELKHFAEAVNWCDEGLQIDAKEKKLLEMRAKADKLKRIEQRDVRKANLKEKKERNQNEALLQAIKARNIRLSEAACEDEDSASEGLGELFLDGLSTENPHGARLSLDGQGRLSWPVLFLYPEYAQSDFISAFHEDSRFIDHLMVMFGETPSWDLEQKYCPDNLEVYFEDEDRAELYRVPAKSTLLQVLQHQRYFVKALTPAFLVCVGSSPFCKNFLRGRKVYQIR
On to B3, for which the binding entry in assay [7] is reported as “no binding”.

B4: TTC4-651-TA (217NK), two-hybrid fusion in pJG4.5 (protein, UniProt O95801 1-387)
chain: MEQPGQDPTSDDVMDSFLEKFQSQPYRGGFHEDQWEKEFEKVPLFMSRAPSEIDPRENPDLACLQSIIFDEERSPEEQAKTYKDEGNDYFKEKDYKKAVISYTEGLKKKCADPDLNAVLYTNRAAAQYYLGNFRSALNDVTAARKLKPCHLKAIIRGALCHLELKHFAEAVNWCDEGLQIDAKEKKLLEMRAKADKLKRIEQRDVRKANLKEKKERKQNEALLQAIKARNIRLSEAACEDEDSASEGLGELFLDGLSTENPHGARLSLDGQGRLSWPVLFLYPEYAQSDFISAFHEDSRFIDHLMVMFGETPSWDLEQKYCPDNLEVYFEDEDRAELYRVPAKSTLLQVLQHQRYFVKALTPAFLVCVGSSPFCKNFLRGRKVYQIR
For the molecule B4, the binding result in assay [7] was “no binding”.
